Source: paper PMC4336329 (PLoS ONE, 2015)
Out of some 310,000 compounds screened, about 14,000 (4.5%) showed an effect of 50% or more. Effects have a minus sign here. The list shows a part of the results.

Target: human ether-à-go-go-related gene (hERG) potassium channel (human, UniProt Q12809)
Test: primary screen, population patch clamp on CHO cells stably expressing hERG
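Note: peak tail current of the secondary pulse compared with the same well before compound.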

Sequence of human ether-à-go-go-related gene (hERG) potassium channel (Q12809 whole entry, looked up): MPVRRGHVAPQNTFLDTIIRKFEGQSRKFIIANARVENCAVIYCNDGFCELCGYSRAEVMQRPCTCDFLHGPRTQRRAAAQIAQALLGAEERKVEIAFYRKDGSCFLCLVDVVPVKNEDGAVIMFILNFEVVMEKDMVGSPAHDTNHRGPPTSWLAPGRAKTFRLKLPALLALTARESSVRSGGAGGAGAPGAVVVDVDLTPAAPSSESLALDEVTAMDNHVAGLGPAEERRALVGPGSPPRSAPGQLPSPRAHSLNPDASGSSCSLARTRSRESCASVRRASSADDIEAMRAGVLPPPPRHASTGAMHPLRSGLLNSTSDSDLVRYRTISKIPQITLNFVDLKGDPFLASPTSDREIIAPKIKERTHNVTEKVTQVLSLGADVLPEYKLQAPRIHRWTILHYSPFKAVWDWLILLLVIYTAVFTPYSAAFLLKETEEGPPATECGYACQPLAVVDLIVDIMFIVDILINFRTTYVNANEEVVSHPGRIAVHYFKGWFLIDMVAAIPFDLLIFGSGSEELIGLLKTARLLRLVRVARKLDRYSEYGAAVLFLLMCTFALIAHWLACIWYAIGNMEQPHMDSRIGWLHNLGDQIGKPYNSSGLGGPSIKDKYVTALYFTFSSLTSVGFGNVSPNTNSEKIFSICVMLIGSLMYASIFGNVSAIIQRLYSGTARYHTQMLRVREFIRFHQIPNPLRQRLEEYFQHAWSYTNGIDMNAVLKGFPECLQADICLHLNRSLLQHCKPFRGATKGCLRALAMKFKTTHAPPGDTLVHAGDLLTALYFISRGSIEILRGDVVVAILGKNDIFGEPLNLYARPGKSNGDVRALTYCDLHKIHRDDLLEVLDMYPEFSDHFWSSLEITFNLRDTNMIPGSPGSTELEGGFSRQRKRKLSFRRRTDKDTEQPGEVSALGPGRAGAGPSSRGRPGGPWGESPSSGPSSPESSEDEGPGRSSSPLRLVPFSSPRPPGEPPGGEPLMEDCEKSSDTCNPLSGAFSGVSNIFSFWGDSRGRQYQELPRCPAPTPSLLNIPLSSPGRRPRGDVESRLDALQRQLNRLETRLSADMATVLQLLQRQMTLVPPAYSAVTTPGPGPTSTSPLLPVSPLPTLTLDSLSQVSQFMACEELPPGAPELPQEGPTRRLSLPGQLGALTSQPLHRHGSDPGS

SMILES | hERG current change (%, negative = inhibition) at 10uM [%]
COc1ccc(C(=O)Nn2c(CC(C)C)nc3cc(OC)c(OC)cc3c2=O)c(OC)c1 | -9.77
O=C(NC(=S)N1CCc2ccccc21)C1CCC1 | 20.8
O=C1CC(NS(=O)(=O)c2ccc(F)cc2)CN1c1ccc2c(c1)OCCO2 (centres unmarked) | -12.4
Cn1c(=O)c2c(nc(-n3ccnc3)n2Cc2ccccc2)n(C)c1=O | 6.89
COc1ccc(C)c(NC(=O)C2CC(=O)NC3=C2C(=O)CCC3)c1 (centres unmarked) | -6
O=C(NCCN1CCCCC1)Nc1ccc(F)cc1 | -13.1
COc1ccc(S(=O)(=O)N2C3CCC2CC(NC(=O)NC2CCCCC2)C3)cc1 (centres unmarked) | 1.2
Cc1nc2ccc(S(=O)(=O)NC(CC(C)C)C(=O)O)cc2s1 (centres unmarked) | 22.3
CCc1c(C)nc2c(Br)cccc2c1SCCC#N | -11.5
COC(C(=O)N/N=C(\C)CC(=O)Nc1ccc(N(C)C)cc1)c1ccccc1 (centres unmarked) | 15.3
CCOc1cccc(/C=C2\NC(=S)N(c3ccccc3)C2=O)c1O | 22.2
O=C(COC(=O)c1ccc(O)cc1O)NC1CC1 | 12.2
COc1ccc(OC)c(S(=O)(=O)N(C)CC(=O)N2CCN(c3ccccc3)CC2)c1 | -31.9
CSc1ncccc1C(=O)NCc1ccccc1Cl | -7.25
CCOC(=O)c1c(NC(=O)Cn2cnc([N+](=O)[O-])n2)sc2c1CCCC2 | 10.1
COC(=O)c1ccc(C23CC4(C2)[C@H](CN(C)[C@@H]4c2ccccc2)C3c2ccc(Cl)nc2)cc1 (some centres unmarked) | -28
Cc1cccc(OCc2n(CC(=O)OC3CC(C)CCC3C(C)C)c3ccccc3[n+]2C)c1.[Cl-] (centres unmarked) | -75
CC(=O)NCCNC(=O)c1ccc(CSc2nc3ccccc3s2)cc1 | -2.51
Cc1nc(SCC(=O)c2cc3ccccc3oc2=O)c(C#N)c(-c2cccs2)c1C(=O)Nc1ccccc1 | 14.8

SMILES | hERG current change (%, negative = inhibition) at 10uM [%]
CCCc1nc2sc3c(c2c(=O)n1NC(=O)CCC(=O)OC)CCCC3 | -6.97
COc1ccc(CN(C)CC(=O)Nc2cccc(S(N)(=O)=O)c2)c(OC)c1OC | 4.19
COc1ccc(NC(=O)CSCc2ccc(C)cc2)cc1 | -0.289
Cn1c(=O)c2ncn(CC(=O)NCCOCc3ccccc3Cl)c2n(C)c1=O | 5.02
CCCC(C)C1(CC)C(=O)NC(=Nc2ccc(F)cc2)NC1=O (centres unmarked) | 17.5
CCc1ccccc1N1CN(Cc2ccco2)CNC1=S | 12.6
O=c1cc(C(Cl)(Cl)Cl)oc2c1ccc1ccccc12 | 10.6
CN(C)CCCN(C(=O)c1sc2ccccc2c1Cl)c1nc2ccc(F)cc2s1.Cl | -19.7
CSc1nsc(/C=C/Nc2ccc(O)cc2C)c1C#N | -13.5
COc1ccc2nc(Nc3nc(CSc4nnnn4-c4ccccc4)cc(=O)[nH]3)nc(C)c2c1 | -42.1
CC(=O)OC1CC2(C)C(=O)CCC2C2CCc3cc(O)ccc3C12 (centres unmarked) | 1.59
Cc1ccc(O)c(C(=O)c2cnc3c(c2)c(-c2ccc(F)cc2)c(C#N)c(=O)n3C)c1 | -5.53
Cc1ccc(S(=O)(=O)Nc2nc3ccccc3nc2N2CCc3ccccc3C2)cc1 | 3.37
O=C(/C=C/c1cccc(Cl)c1)NNC(=O)c1ccncc1 | -6.64
COc1ccc(-c2nn(-c3ccccc3)cc2C(=O)N2CCOCC2)cc1 | -2.01
CCOC(=O)C1(CC/C(C)=N\NC(N)=O)CC(C)OC1=O (centres unmarked) | 2.82
O=C(CS(=O)c1cccc(Cl)c1)Nc1ccccc1Cl (centres unmarked) | -11.4
O=C(C1CCN(Cc2ccc(Cl)cc2)CC1)N1CCN(Cc2ccc3c(c2)OCO3)CC1 | -66.6
Cc1cccc(C)c1NC(=O)C(NC=O)c1ccc(Cl)cc1 (centres unmarked) | 0.758

SMILES | hERG current change (%, negative = inhibition) at 10uM [%]
COc1ccccc1N(CC(=O)Nc1cccc(C(F)(F)F)c1)S(C)(=O)=O | -2.18
COC(=O)c1ccccc1NC(=O)Nc1ccc(Cl)cn1 | -3.82
Cc1ccc(NCN2C(=O)C(=O)c3ccccc32)nc1 | -2.15
O=C(CSC1=NCCS1)Nc1ccc(F)cc1 | 15.1
O=C(c1ccc2c(c1)OCCO2)N1CCN(c2ccccn2)CC1 | 15.8
O=C(COC(=O)CCc1ccccc1)Nc1cc(S(=O)(=O)N2CCOCC2)ccc1N1CCCC1 | -20.1
O=c1nc(N(c2ccccc2)c2ccccc2)[nH]c(=O)[nH]1 | -8.04
COc1ccc2cc(C(=O)C3CCCN(Cc4ccccn4)C3)ccc2c1 (centres unmarked) | -66.2
O=C(Nc1cnccn1)c1ccc(F)cc1Cl | -10.4
CCc1ccccc1NS(=O)(=O)Cc1ccccc1 | -1.1
CC(C)N1CC(C(=O)Nc2ccc(S(=O)(=O)N3CCCCC3)cc2)CC1=O (centres unmarked) | 15.9
CN(CC(=O)NC1CC1)S(=O)(=O)c1cc(Cl)ccc1Cl | 6.21
COc1ccc(CN2CCN(C(=O)c3cccnc3)CC2)cc1Br.O=C(O)C(=O)O | -9.65
Nc1ccccc1-c1nnc(-c2ccc(-c3ccccc3)cc2)o1 | 10.1
O=C(CN1C(=O)c2cccc3cccc1c23)NC1CCCC1 | 15.1
COc1ccc(/C=N/NC(=O)CN2CCCC2)cc1 | -14.8
COc1ccc(C(=O)Nc2cccc(/C(C)=N/NC(=O)c3ccc([N+](=O)[O-])cc3)c2)cc1OC | -3.06
Cc1cc(/C=N/NC(N)=S)c(C)n1-c1ccc(Cl)cc1 | -6.66
